Measured values taken from PubChem BioAssay AID686979 (National Center for Advancing Translational Sciences (NCATS), 2013).
About 50,000 (12%) of roughly 420,000 compounds were called active. The inconclusive results got no clear call from the source; some entries with a clear call stand among them for comparison. The call rests on the fitted dose curve; in most records, active means well fitted inhibition curve with a large enough effect; inconclusive means small, poorly fitted or top-dose-only effect; inactive means flat fitted curve, though single readings scatter. No potency is given beside an inconclusive call; the fits are too rough.

assay: qHTS for Inhibitors of human tyrosyl-DNA phosphodiesterase 1 (TDP1): qHTS in cells in presence of CPT; settings: chicken DT40 Tdp1-/-;hTDP1 cells + 20 nM CPT, ATP luminescence, 48 h; activity change, negative = growth inhibition: at 46.2 µM (top of the series) unless noted; further: nearly all actives have a fitted effect of over 55% in size
Outline: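 Chicken DT40 Tdp1-/- cells complemented with human TDP1, 400 cells/well, exposed to compounds plus 20 nM camptothecin for at least 48 h at 37 C; viability read as ATP content by CellTiter-Glo luminescence.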
On the % scale 0 is the no-effect control and ±100 the full control effect; potency means the concentration at half of the fitted maximal effect; tags describe the fitted curve by direction and shape.

Question: Which Potency does the source give for `CC/C(=N\NC(=S)NC(C)C)c1ccc(OC(F)F)cc1` here?
Answer: inconclusive [inhibitor, single point]

Question: With `CCCN1CNc2c(c(=O)[nH]c(=S)n2CCc2cc(OC)cc(OC)c2)C1` as the compound, how does the Potency read?
Answer: inconclusive [inhibitor, single point]

Question: Which Potency does the source give for `O=C(COc1ccc(Cl)cc1)NCC(c1ccco1)S(=O)(=O)c1ccccc1` (centres undefined) here?
Answer: inconclusive [inhibitor, single point]

Question: With `Cc1ccc(NC(=O)COC(=O)CN2C(=O)NC3(CCCC3)C2=O)cc1Cl` as the compound, how does the Potency read?
Answer: inactive

Question: With `COc1ccccc1[C@@H]1C(c2ccccc2)=NN(c2ccc(Br)cc2)[C@H]1C(=O)N1CCOC1=O` as the compound, how does the Potency read?
Answer: inconclusive [inhibitor, single point]

Question: Which Potency does the source give for `Cc1ccccc1CCNC(=O)c1ccc(NC(=O)N2CC(C)Sc3ccccc32)cc1` (centres undefined) here?
Answer: active: 18.4 µM

Question: With `CCOC(=O)c1cc(=O)nc(N)s1` as the compound, how does the Potency read?
Answer: inactive

Question: For `O=C1/C(=C/c2cccs2)SC(=S)N1C1CCS(=O)(=O)C1` (centres undefined), which Potency is on record?
Answer: active: 14.6 µM

Question: For `CN(N)c1ccc2c(C(F)(F)F)cc(C(F)(F)F)nc2n1`, which Potency is on record?
Answer: inconclusive [inhibitor, single point]

Question: Which Potency does the source give for `Cc1ccc(-c2cc(C(=O)NCc3cn(C)nc3C)c3cc(Br)ccc3n2)cc1` here?
Answer: inconclusive [inhibitor, single point]

Question: With `N/C(=N\OC(=O)COc1ccccc1)c1ccccn1` as the compound, how does the Potency read?
Answer: inactive

Question: For `Oc1cccc(CN2CCN(c3ncc(Cc4ccccc4)cn3)CC2)c1`, which Potency is on record?
Answer: inconclusive [inhibitor, single point]

Question: Which Potency does the source give for `CCCCc1nc(Cl)c(C#N)c2c1CCCC2` here?
Answer: inactive

Question: With `CC(=O)C[C@H](O)CC(=O)[C@H]1OC(=O)CCCCC/C=C/Cc2ccccc21` as the compound, how does the Potency read?
Answer: inconclusive [inhibitor, single point]

Question: For `Cc1[nH]nc(-c2ccc(OCc3cnn(-c4ccccc4)c3)cc2O)c1Oc1ccc(Cl)cc1`, which Potency is on record?
Answer: active: 18.4 µM

Question: With `Nc1nc(NS(=O)(=O)c2ccc(Cl)cc2)nn1-c1ccccc1` as the compound, how does the activity change, negative = growth inhibition read?
Answer: inconclusive: -1.32% [inhibitor]

Question: For `Cc1ccc(C)c(NNC(N)=S)c1`, which Potency is on record?
Answer: inactive

Question: Which Potency does the source give for `COc1ccc(-c2ccc3c(c2)C2CC3CCN2CCC#N)cc1` (centres undefined) here?
Answer: inconclusive [inhibitor, single point]

Question: With `CCn1cnc2cc(NCc3ccc(C)cc3)ccc21` as the compound, how does the Potency read?
Answer: inactive

Question: Which Potency does the source give for `CC1CN(C(=O)COC(=O)c2ccc(N(C)C)cc2)CC(C)O1` (centres undefined) here?
Answer: inactive

Question: For `CC(C)C(c1nnnn1C1CCCC1)N1CCN(c2ccccc2F)CC1` (centres undefined), which Potency is on record?
Answer: inconclusive [inhibitor, single point]

Question: For `O=C(N/N=C\c1ccco1)Nc1cccc(Cl)c1`, which Potency is on record?
Answer: inactive

Question: Which Potency does the source give for `Cc1nn(-c2ccc(N3CCOCC3)nn2)c(C)c1CCC(=O)NCc1ccccc1` here?
Answer: inactive

Question: With `COc1ccc(C(C)NC(=O)C2CCCC2)cc1OC` (centres undefined) as the compound, how does the Potency read?
Answer: inactive

Question: Which Potency does the source give for `CN(c1ccccc1)S(=O)(=O)c1cccc(NC(=O)Cc2n[nH]c(=O)c3ccccc23)c1` here?
Answer: active: 13 µM

Question: For `O=C1/C(=C\c2cccc([N+](=O)[O-])c2O)SC(=S)N1Cc1ccccc1`, which Potency is on record?
Answer: active: 18.4 µM

Question: With `CN(C(=O)CCc1nnc(Cc2ccc(-c3ccccc3)cc2)o1)C1CCOCC1` as the compound, how does the Potency read?
Answer: inconclusive [inhibitor, single point]

Question: With `COC1(OC)C(/C=C/c2ccc(C)cc2)C(C#N)(C#N)C1(OC)OC` (centres undefined) as the compound, how does the Potency read?
Answer: inconclusive [inhibitor, single point]

Question: Which Potency does the source give for `CCC1CCCCN1S(=O)(=O)c1ccc(C(=O)N(CCCN(C)C)c2nc3cc4c(cc3s2)OCO4)cc1` (centres undefined) here?
Answer: active: 16.4 µM

Question: Which Potency does the source give for `CCNC(=O)C1CC(=O)N(Cc2ccc3c(c2)OCO3)C(=Nc2ccc(F)cc2)S1` (centres undefined) here?
Answer: inactive

Question: For `CNC(=O)NC(=O)C(NC1CCCc2ccccc21)c1ccccc1` (centres undefined), which Potency is on record?
Answer: inactive

Question: Which Potency does the source give for `Cc1cc(C)c(NC(=O)CSc2n[nH]c(-c3ccccc3Cl)n2)c(C)c1` here?
Answer: inconclusive [inhibitor, partial curve]

Question: With `CCN1C(=O)[C@@H]2[C@@H]3CN(S(=O)(=O)c4ccc(C)cc4)[C@@H](c4ccccc4)[C@@H]3C(=O)C[C@@H]2C1=O` as the compound, how does the Potency read?
Answer: inactive

Question: Which Potency does the source give for `CC(=O)N1CCN(S(=O)(=O)c2cccc(C(=O)OCc3ccc(F)cc3)c2)CC1` here?
Answer: inconclusive [inhibitor, single point]

Question: For `O=C(CSc1ncnc2c1cnn2-c1ccc(F)cc1)NCC1CCCO1` (centres undefined), which Potency is on record?
Answer: inconclusive [inhibitor, single point]

Question: For `O=C(CSc1nc2ccsc2c(=O)n1Cc1ccccc1)NCc1ccco1`, which Potency is on record?
Answer: inconclusive [inhibitor, partial curve, poor fit]

Question: Which Potency does the source give for `COc1ccc(Nc2nnc(SCC(=O)N(CC(C)C)C3CCS(=O)(=O)C3)s2)cc1` (centres undefined) here?
Answer: inconclusive [inhibitor, single point]

Question: For `NC(=O)c1cc(S(=O)(=O)N2CCOCC2)cs1`, which Potency is on record?
Answer: inactive

Question: Which Potency does the source give for `Cc1ccc(NC(=O)C2CCN(C(=O)N3CCOc4ccccc43)CC2)cc1` here?
Answer: inconclusive [inhibitor, single point]

Question: With `COc1cc(C2C(=O)N(C3CCCCCC3)CC(=O)N2Cc2ccccc2)ccc1OC(C)C` (centres undefined) as the compound, how does the Potency read?
Answer: inconclusive [inhibitor, single point]

Question: Which Potency does the source give for `Cc1ccccc1OCC(=O)Nc1cc(S(=O)(=O)N2CCOCC2)ccc1N1CCCC1` here?
Answer: inconclusive [inhibitor, single point]

Question: For `CCOC(=O)c1c(NC(=O)C[n+]2ccc(N(C)C)cc2)sc(C)c1C`, which Potency is on record?
Answer: inconclusive [inhibitor, single point]

Question: For `CN(C)CCNC(=O)CN1N=C(c2ccccc2)CCC1=O`, which Potency is on record?
Answer: inactive

Question: Which Potency does the source give for `CCCN(CCC)CCCNC(=O)c1cn(CCOC)c(=O)c2c1c1ccccc1n2C` here?
Answer: inconclusive [inhibitor, single point]

Question: With `CC(C)c1c(C(=O)N/N=C/c2ccc(OCc3ccccc3)cc2)nnn1-c1nonc1N` as the compound, how does the Potency read?
Answer: inconclusive [inhibitor, partial curve]

Question: Which Potency does the source give for `OC(COCC(F)(F)C(F)(F)C(F)(F)C(F)F)Cn1c2ccc(Cl)cc2c2cc(Cl)ccc21` (centres undefined) here?
Answer: active: 3.66 µM

Question: For `Clc1ccc(NC2(c3nnnn3C3CCCCC3)CCCCC2)cc1`, which Potency is on record?
Answer: active: 18.4 µM

Question: With `O=C(O)c1ccccn1` as the compound, how does the Potency read?
Answer: inactive

Question: With `O=C1NC(=S)S/C1=C\C=C\c1ccc([N+](=O)[O-])o1` as the compound, how does the Potency read?
Answer: active: 1.64 µM

Question: With `O=C(c1cc(C(F)(F)F)cc(C(F)(F)F)c1)N1CCC[C@@]2(CCN(Cc3ccncc3)C2)C1` as the compound, how does the Potency read?
Answer: inactive

Question: With `CCN1C(=O)N(S(=O)(=O)C(F)(F)F)[C@@H](c2ccccc2)C(C(=O)OC)=C1C` as the compound, how does the Potency read?
Answer: inactive

Question: Which Potency does the source give for `Nc1nc(/C=C/c2cccnc2)nc(-c2ccccc2O)n1` here?
Answer: active: 2.91 µM

Question: With `COC(=O)c1ccc(NC(=O)CN(Cc2ccccc2)S(=O)(=O)c2ccc(C)cc2)cc1` as the compound, how does the Potency read?
Answer: inconclusive [inhibitor, single point]

Question: For `Cc1cc2c(cc1S(=O)(=O)N1CCN(c3cccc(C(F)(F)F)c3)CC1)OCC(=O)N2`, which Potency is on record?
Answer: active: 18.4 µM

Question: Which Potency does the source give for `Cc1sc2ncnc(N3CCN(c4ncccn4)CC3)c2c1C` here?
Answer: active: 23.1 µM

Question: With `Cc1cnc(C(=O)OCC(=O)Nc2cc(-c3ccccc3)nn2-c2ccccc2)cn1` as the compound, how does the Potency read?
Answer: inactive

Question: With `COc1ccc(-c2ccn(-c3cccc(F)n3)n2)cc1` as the compound, how does the Potency read?
Answer: inconclusive [inhibitor, partial curve]

Question: With `O=C(NCCc1ccccc1)c1ccc(Cl)c(S(=O)(=O)N2CCOCC2)c1` as the compound, how does the Potency read?
Answer: inconclusive [inhibitor, single point]

Question: Which Potency does the source give for `O=C(CSc1ncc(-c2ccccc2)n1CC1CCCO1)N1CCCCC1` (centres undefined) here?
Answer: inactive

Question: Which Potency does the source give for `Cc1ccnc(SCC(=O)c2cc3ccccc3o2)n1` here?
Answer: inconclusive [inhibitor, partial curve]

Question: With `Cc1cc(NC(=O)CCCn2cnc([N+](=O)[O-])n2)no1` as the compound, how does the Potency read?
Answer: inconclusive [inhibitor, single point]

Question: With `CCOC(=O)Nc1ccc(NC(=O)OCC)cc1` as the compound, how does the Potency read?
Answer: inactive

Question: With `CCCCn1c(O)c(/C=C2\C=Nc3ccccc32)c(=O)[nH]c1=O` as the compound, how does the Potency read?
Answer: inactive

Question: With `Cc1[nH]ncc1Nc1c(C(C)C)cccc1C(C)C` as the compound, how does the Potency read?
Answer: inconclusive [inhibitor, single point]

Question: With `CC(=O)Nc1cccc(NC(=O)CSc2ccc(-c3ccccn3)nn2)c1` as the compound, how does the Potency read?
Answer: inconclusive [inhibitor, single point]

Question: For `COC(=O)c1ccccc1NC(=O)c1noc2c1CC(C(C)(C)C)CC2` (centres undefined), which Potency is on record?
Answer: inconclusive [inhibitor, partial curve]

Question: For `COc1ccc(NC(=O)c2cnc(Nc3ccc(C)c(Cl)c3)c3ccccc23)c(OC)c1`, which Potency is on record?
Answer: inactive

Question: Which Potency does the source give for `COc1ccc(-c2ccnc(SCC(=O)c3ccc(Br)cc3)n2)cc1` here?
Answer: inconclusive [inhibitor, single point]

Question: Which Potency does the source give for `O=C(c1cc(COc2ccc3ncccc3c2)on1)N1CCCC(O)C1` (centres undefined) here?
Answer: inconclusive [inhibitor, single point]

Question: For `CC(Sc1nnc(CN2CCCC2)n1Cc1ccccc1)C(=O)Nc1ccc(F)cc1` (centres undefined), which Potency is on record?
Answer: inactive

Question: With `CC(C)[C@H](NC(=O)[C@@H]1CSC2c3ccccc3C(=O)N21)C(=O)NC1CCCC1` (some centres undefined) as the compound, how does the Potency read?
Answer: inconclusive [inhibitor, single point]

Question: For `Cc1ccc(Cl)cc1N1CCN(C(=O)c2cnn(C(C)(C)C)c2C2CCN(C(=O)OC(C)(C)C)CC2)CC1`, which Potency is on record?
Answer: active: 25.9 µM

Question: With `CCOc1ccc(NC(=O)Cn2cc(C(=O)c3ccc(CC)cc3)c(=O)c3cc4c(cc32)OCO4)cc1` as the compound, how does the Potency read?
Answer: inconclusive [inhibitor, single point]

Question: With `O=C(COc1ccc(S(=O)(=O)N2CCOCC2)cc1)N1CCc2ccccc2C1` as the compound, how does the Potency read?
Answer: inconclusive [inhibitor, single point]
